{"source": "PubChem BioAssay AID1461", "about": "(National Center for Advancing Translational Sciences (NCATS), 2008)", "note": "In all, about 220,000 compounds went through this assay and about 2,300 (1%) were called active. The shares of active, inactive and inconclusive entries below differ from those in the screen. Calls follow the shape of the dose curve; as a rule, active = well fitted inhibition curve with a large enough effect; inconclusive = small, poorly fitted or top-dose-only effect, or effect the other way; inactive = no such curve, though single readings can be large or run the other way. Potencies of inconclusive entries are left out as doubtful fits.", "data": [{"biological_target": "Neuropeptide S receptor (Homo sapiens) (UniProt Q6W5P4)", "sequence (Q6W5P4 whole entry, looked up)": "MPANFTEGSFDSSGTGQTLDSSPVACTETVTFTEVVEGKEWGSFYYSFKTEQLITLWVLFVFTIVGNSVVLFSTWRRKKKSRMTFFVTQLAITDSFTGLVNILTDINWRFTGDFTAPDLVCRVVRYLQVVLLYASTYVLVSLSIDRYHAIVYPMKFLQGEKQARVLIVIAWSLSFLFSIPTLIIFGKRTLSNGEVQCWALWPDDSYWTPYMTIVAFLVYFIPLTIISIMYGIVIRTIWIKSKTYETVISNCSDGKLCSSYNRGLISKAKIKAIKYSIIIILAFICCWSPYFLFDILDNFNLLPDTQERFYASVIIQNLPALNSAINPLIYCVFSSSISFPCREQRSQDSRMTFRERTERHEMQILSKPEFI", "experiment": "qHTS Assay for Antagonists of the Neuropeptide S Receptor: cAMP Signal Transduction; also: nearly all actives have a fitted effect of over 50% in size; also: potency is read from the fitted curve at half-maximal effect; tags tell the direction and shape of the fitted curve; as to activity change, negative = inhibition: % is scaled to controls: 0 for no effect and ±100 for the full control effect", "conditions": "CHO-NPSR cells, cAMP TR-FRET, antagonist mode; activity change, negative = inhibition: at 38.3 µM (top of the series) unless noted", "values": [{"molecule": "COC(=O)C1=C(CSc2nc3c(cc2C#N)CN(C)CC3)OC(N)=C(C#N)C1c1ccccc1F", "note": "(stereo unspecified)", "Potency": "inconclusive [inhibitor, single point]"}, {"molecule": "Cc1ccc(NC(=O)COC(=O)C2CC(=O)N(Cc3ccccc3)C2)cc1S(=O)(=O)N(C)C", "note": "(stereo unspecified)", "activity change, negative = inhibition": "inactive: 10.5%"}, {"molecule": "O=c1/c(=C/c2ccco2)sc2n1CN(c1cccc(Br)c1)CN=2", "Potency": "inconclusive [inhibitor, single point]"}, {"molecule": "S=C(Nc1ccc2nc(-c3ccccn3)c(-c3ccccn3)nc2c1)N1CCOCC1", "activity change, negative = inhibition": "inactive: 6.25%"}, {"molecule": "C/C(=N/O)c1cc(C(C)(C)C)c(O)c(C(C)(C)C)c1", "Potency": "inconclusive [inhibitor, single point]"}, {"molecule": "CCOC(=O)c1ccc(NC(=O)C2(c3ccccc3)CCOCC2)cc1", "Potency": "inconclusive [inhibitor, single point]"}, {"molecule": "Cc1ccc(CNC(=O)c2cc3c(C)nc4ccccc4c3o2)cc1", "Potency": "inconclusive [inhibitor, single point]"}, {"molecule": "COc1ccc(NC(=O)c2ccc(C#N)cc2)cc1NS(=O)(=O)c1ccc(F)cc1", "activity change, negative = inhibition": "inactive: 7.16%"}, {"molecule": "Cc1ccc(CN(Cc2cccnc2)C(=S)Nc2cccc(Cl)c2C)cc1", "Potency": "inconclusive [inhibitor, single point]"}, {"molecule": "COc1ccc(C(c2nnnn2Cc2cccs2)N2CCN(c3ccc(F)cc3)CC2)cc1OC", "note": "(stereo unspecified)", "Potency": "inconclusive [inhibitor, single point]"}, {"molecule": "O=C(Nc1ccc(N2CCOCC2)cc1)c1ccncc1", "activity change, negative = inhibition": "inactive: -0.697%"}, {"molecule": "Cc1nc(C)c(-c2csc(Nc3cccc(O)c3)n2)s1", "activity change, negative = inhibition": "inactive: 54.4%"}, {"molecule": "COc1cc(SC)ccc1C(=O)NCCOc1ccccc1Cl", "Potency": "inconclusive [inhibitor, single point]"}, {"molecule": "Cc1cc(=O)n2c(n1)NC(Nc1cccc(C)c1C)=NC2c1ccc(F)cc1", "note": "(stereo unspecified)", "activity change, negative = inhibition": "inactive: -1.09%"}, {"molecule": "CCOC(=O)C1C(=O)C(C(C)=O)C(=O)CC1CC(C)SCC", "note": "(stereo unspecified)", "Potency": "inconclusive [inhibitor, single point]"}, {"molecule": "OC(C#Cc1ccccn1)c1cccs1", "note": "(stereo unspecified)", "Potency": "inconclusive [inhibitor, full curve]"}, {"molecule": "CCn1c(=S)[nH]c2c(c1=O)C(C)(C)Cc1ccccc1-2", "Potency": "inconclusive [activator, partial curve]"}, {"molecule": "CCCNc1nc(C)nc2c1cnn2CCc1ccccc1", "activity change, negative = inhibition": "inactive: -7.29% [at 46.1 µM]"}, {"molecule": "CC(=O)c1sc(-c2ccccc2)cc1NS(=O)(=O)c1ccccc1", "Potency": "inconclusive [activator, full curve]"}, {"molecule": "O=S(=O)(NC1CCCCC1Nc1ccc(Cl)cc1)c1ccccc1", "note": "(stereo unspecified)", "activity change, negative = inhibition": "inactive: -28.3%"}, {"molecule": "COc1ccc2c(c1)[nH]c1c(N3CCN(Cc4ccc5c(c4)OCO5)CC3)ncnc12", "Potency": "active: 12.6 µM"}, {"molecule": "O=C(COc1ccc2ccccc2c1)N1c2ccccc2Sc2ccccc21", "Potency": "inconclusive [inhibitor, single point]"}, {"molecule": "COc1ccc(N2CCN(Cc3cc(=O)oc4ccc5ccccc5c34)CC2)cc1", "Potency": "inconclusive [inhibitor, single point]"}, {"molecule": "Cc1ccc(C(C(=O)NC2CCCCC2)N2CCC3(CC2)OCCO3)cc1", "note": "(stereo unspecified)", "Potency": "inconclusive [inhibitor, partial curve]"}, {"molecule": "Cc1ccc(N/C(SCc2ccccc2C)=C(/C#N)C(=O)NCc2ccco2)cc1C", "Potency": "inconclusive [inhibitor, single point]"}, {"molecule": "CCOc1ccccc1NC(=O)COC(=O)c1cc(C(=O)OC)cc([N+](=O)[O-])c1", "activity change, negative = inhibition": "inactive: 3.55%"}, {"molecule": "CC(C)(C)c1nnc(NC(=S)Nc2ccccc2)s1", "activity change, negative = inhibition": "inactive: 1.86%"}, {"molecule": "CCOc1ccc(C(C)(C)C)cc1S(=O)(=O)n1nc(C)cc1C", "Potency": "inconclusive [inhibitor, single point]"}, {"molecule": "Cn1c(C(=O)N(Cc2ccccc2)Cc2cccs2)cc2sccc21", "Potency": "inconclusive [activator, single point]"}, {"molecule": "O=C(c1cccs1)N1N=C(c2ccccc2)CC1c1ccccc1O", "note": "(stereo unspecified)", "Potency": "inconclusive [activator, single point]"}, {"molecule": "Cc1nc2c(sc3nc4c(cc32)COC(C)(C)C4)c(=O)n1CC(=O)NCc1ccco1", "Potency": "inconclusive [inhibitor, single point]"}, {"molecule": "CCC(=O)NCCC(c1ccco1)c1ccccc1OC", "note": "(stereo unspecified)", "activity change, negative = inhibition": "inactive: -21.7% [at 46.1 µM]"}, {"molecule": "O=C(O)CCNS(=O)(=O)c1ccc2c(c1)Cc1ccccc1-2", "Potency": "inconclusive [inhibitor, full curve, poor fit]"}, {"molecule": "O=C1C(Nc2ccc(O)cc2)=C/C(=N/S(=O)(=O)c2cccs2)c2ccccc21", "Potency": "active: 6.31 µM"}, {"molecule": "Cc1cccc(Cn2cnc3c(nnn3Cc3ccc(F)cc3)c2=O)c1", "activity change, negative = inhibition": "inactive: -26.7% [at 46.1 µM]"}, {"molecule": "CC1CCCCC1NC(=S)NC(=O)c1ccccc1Br", "note": "(stereo unspecified)", "Potency": "inconclusive [inhibitor, single point]"}, {"molecule": "c1ccc(CNc2nc(CN3CCOCC3)nc3scc(-c4ccccc4)c23)cc1", "activity change, negative = inhibition": "inactive: -31.7%"}, {"molecule": "CCCCC(c1nnnn1CC1CCCO1)N1CCN(c2cc(Cl)ccc2C)CC1", "note": "(stereo unspecified)", "Potency": "inconclusive [inhibitor, partial curve]"}, {"molecule": "COc1ccccc1C(=O)NCCn1cc(SCC(=O)Nc2cc(C)on2)c2ccccc21", "Potency": "inconclusive [inhibitor, single point]"}, {"molecule": "Cn1c(=O)c2c(nc(NCc3ccco3)n2C)n(C)c1=O", "activity change, negative = inhibition": "inactive: -12.6% [at 46.1 µM]"}, {"molecule": "CC(C)c1nc(NCc2ccccc2)c(C#N)c2c1CCCC2", "Potency": "inconclusive [inhibitor, partial curve]"}, {"molecule": "O=C(/C=C/c1ccc([N+](=O)[O-])cc1)N(c1ccccn1)C1CCCCC1", "activity change, negative = inhibition": "inactive: -24.9%"}, {"molecule": "CC(NC(=O)Cn1ncc(Cl)c(Cl)c1=O)C12CC3CC(CC(C3)C1)C2", "note": "(stereo unspecified)", "Potency": "active: 10 µM"}, {"molecule": "COc1ccc(Nc2nnc(Cc3ccc(Cl)cc3)c(=O)[nH]2)c(OC)c1", "Potency": "inconclusive [inhibitor, single point]"}, {"molecule": "COc1cccc(N2CC(C(=O)Nc3c(C)cccc3C)CC2=O)c1", "note": "(stereo unspecified)", "Potency": "inconclusive [activator, full curve, poor fit]"}, {"molecule": "CCn1ccnc1CN1CCCC(C(=O)c2ccc3c4c(cccc24)CC3)C1", "note": "(stereo unspecified)", "Potency": "inconclusive [activator, partial curve]"}, {"molecule": "COc1ccc(-c2cc(=O)oc3cc4occ(C)c4cc23)cc1", "Potency": "inconclusive [inhibitor, partial curve]"}, {"molecule": "CC1CCN(S(=O)(=O)c2ccc(C(=O)Nc3sccc3C(N)=O)cc2)CC1", "Potency": "active: 6.31 µM"}, {"molecule": "CCN1C(=O)C2(Nc3ccccc3-c3nc4ccccc4n32)c2cc(OC)ccc21", "note": "(stereo unspecified)", "Potency": "inconclusive [inhibitor, single point]"}, {"molecule": "O=C(c1nn(Cc2ccccc2)c(=O)c2ccccc12)N1CCc2ccccc2C1", "Potency": "inconclusive [inhibitor, single point]"}, {"molecule": "COCCCn1c(=S)[nH]c2sc3c(c2c1=O)CCCS3", "Potency": "active: 7.94 µM"}, {"molecule": "O=C(NC1CCCCC1)C(c1ccccc1)N(C(=O)c1cccs1)c1ccc2c(c1)OCO2", "note": "(stereo unspecified)", "Potency": "inconclusive [inhibitor, single point]"}, {"molecule": "COc1cccc(NC(=O)CSc2nc3n[nH]c(C)c3c(=N)n2-c2cccc(OC)c2)c1", "Potency": "inconclusive [inhibitor, partial curve]"}, {"molecule": "CC(Cl)C(=O)Nc1cc(C(F)(F)F)ccc1N1CCOCC1", "note": "(stereo unspecified)", "activity change, negative = inhibition": "inactive: -14.9%"}, {"molecule": "O=C(Nc1cccn(Cc2ccccc2Cl)c1=O)NC1CCCCC1", "Potency": "inconclusive [activator, single point]"}, {"molecule": "CC(=O)CC1(O)C(=O)N(Cc2ccccc2)c2ccccc21", "note": "(stereo unspecified)", "activity change, negative = inhibition": "inactive: -3.71% [at 46.1 µM]"}, {"molecule": "CC1=C(CC(=O)O)c2cc(F)ccc2/C1=C\\c1ccc(S(C)=O)cc1", "note": "(stereo unspecified)", "Potency": "inconclusive [inhibitor, single point]"}, {"molecule": "COC(=O)C1=C(N)Oc2cc(C)n(Cc3ccco3)c(=O)c2C1c1cccc(Cl)c1", "note": "(stereo unspecified)", "Potency": "inconclusive [inhibitor, partial curve]"}, {"molecule": "CC(=O)Nc1ccc(OCC(O)CN2CCCCC2C)cc1", "note": "(stereo unspecified)", "activity change, negative = inhibition": "inactive: 12.2%"}, {"molecule": "C/C(N)=C(/C#N)C(=O)CSc1nc2ccccc2c(=O)n1Cc1ccc(F)cc1", "Potency": "inconclusive [activator, partial curve]"}, {"molecule": "COc1ccc(-n2c(COc3ccc(C)cc3)nnc2SCc2ccc(C#N)cc2)cc1", "Potency": "inconclusive [inhibitor, single point]"}, {"molecule": "CCc1ccccc1NC(=O)c1cc2ncc(Br)cn2n1", "Potency": "inconclusive [inhibitor, single point]"}, {"molecule": "O=C(Nc1ccn(Cc2ccccc2F)n1)c1ccc(COc2cc(Cl)ccc2Cl)o1", "Potency": "inconclusive [inhibitor, partial curve]"}, {"molecule": "O=C(Nc1cccnc1)c1noc2c1CCCC2", "Potency": "inconclusive [inhibitor, single point]"}, {"molecule": "C=CC[n+]1ccc2ccccc2c1C", "activity change, negative = inhibition": "inactive: 10%"}, {"molecule": "N#CC(C#N)=C1C=CC=CN1/C(=C\\c1ccco1)C(=O)c1ccccc1", "Potency": "inconclusive [inhibitor, single point]"}, {"molecule": "COc1ccccc1N1CCN(/N=C/c2cc([N+](=O)[O-])ccc2Cl)CC1", "activity change, negative = inhibition": "inactive: -17%"}, {"molecule": "COC(=O)c1ccc(CSc2nc3ccccc3c(=O)n2CC(C)C)o1", "Potency": "inconclusive [inhibitor, single point]"}, {"molecule": "CN(c1ccc([N+](=O)[O-])cc1C(=O)Nc1ccccc1)C1CCCCC1", "Potency": "inconclusive [inhibitor, partial curve]"}, {"molecule": "COc1ccc(OC)c(NC(=O)c2ccccc2NS(=O)(=O)c2cccc3cccnc23)c1", "Potency": "inconclusive [inhibitor, partial curve, poor fit]"}, {"molecule": "CCOC(=O)CNC(=O)c1sc(NC(=O)/C=C/c2ccccc2)nc1C", "Potency": "inconclusive [inhibitor, single point]"}]}]}
